Assay results: article PMC6602471
The list shows a part of the results. At the low end of the ranking the order means little.

Molecular target: T1, ELK1 (UniProt P19419)
T1 sequence: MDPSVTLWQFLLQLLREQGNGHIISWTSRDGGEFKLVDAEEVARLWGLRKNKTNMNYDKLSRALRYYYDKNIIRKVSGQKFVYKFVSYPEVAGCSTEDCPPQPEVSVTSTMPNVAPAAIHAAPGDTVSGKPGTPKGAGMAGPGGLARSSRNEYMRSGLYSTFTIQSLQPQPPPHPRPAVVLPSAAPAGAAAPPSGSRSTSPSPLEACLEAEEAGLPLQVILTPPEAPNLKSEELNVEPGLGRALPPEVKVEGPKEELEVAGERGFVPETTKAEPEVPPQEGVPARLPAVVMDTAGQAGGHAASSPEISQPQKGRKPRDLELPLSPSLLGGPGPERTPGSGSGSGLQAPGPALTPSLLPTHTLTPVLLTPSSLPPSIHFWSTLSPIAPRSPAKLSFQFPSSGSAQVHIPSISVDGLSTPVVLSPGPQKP
Assay: custom PBM
Conditions: custom protein-binding microarray; buffer, salt, pH and temperature not stated; high values mean tight binding; double strand, one strand shown

Row | Sequence | binding signal (log fluorescence intensity)
1 | CGGAAGTGTCGTAAACGTCGGATATCCGGGTCTTCTGTCTTGATTCGCTTGACGCTGCTG | 11.9
2 | GCTGCTGCGGTGCATACCCCACCGGATGTGACTCCGGTCTTGATTCGCTTGACGCTGCTG | 10.3
3 | GCTGCTGCGGTGCATACCTCACCGGATGTGACCCCGGTCTTGATTCGCTTGACGCTGCTG | 10.1
4 | GCTGCTGCGGTGCATACCCCACCCGATGTGACCCCGGTCTTGATTCGCTTGACGCTGCTG | 8.86
5 | GATTAATTTCTGCCCTTATTCGCACGAGCCATAACAGTCTTGATTCGCTTGACGCTGCTG | 8.88
6 | CTGGGACTTGATCCAACTCTGCCACGTGGGTCGTTTGTCTTGATTCGCTTGACGCTGCTG | 8.95
7 | CGGAAGGGTCGTAAACGTCGGATATCCGGTTCTTCTGTCTTGATTCGCTTGACGCTGCTG | 12.1
8 | TCCGGCTACCAGCTCCACCCACTTCAGGTCTTGTAGGTCTTGATTCGCTTGACGCTGCTG | 8.83
9 | CACAATTTTTACAGTAATGTAGCTCGCGTAACTCCTGTCTTGATTCGCTTGACGCTGCTG | 8.86
10 | CACAATTTTTACAGTAATGTAGGACGCGTAACTCCTGTCTTGATTCGCTTGACGCTGCTG | 8.86
11 | CGGAAGTGTCGTAAACGTGGGATATCCGGTTCTTCTGTCTTGATTCGCTTGACGCTGCTG | 11.4
12 | TGAAAAAGGCCCAGGGTAACACCGGAAGTGGGCTTAGTCTTGATTCGCTTGACGCTGCTG | 11
13 | GCTTCTGCGGTGCATACCCCACCGGATGTGACCCCGGTCTTGATTCGCTTGACGCTGCTG | 10.3
14 | CACAATTTTTACAGTAATGTAGCACGCGTAAATCCTGTCTTGATTCGCTTGACGCTGCTG | 8.89
15 | GATTAATTTCTGCTCTTATTCGCACGTGCCATAACAGTCTTGATTCGCTTGACGCTGCTG | 8.82
16 | CTGGGACTTGACCCAACTGTGCCACGTGGGTCGTTTGTCTTGATTCGCTTGACGCTGCTG | 8.72
17 | TGTCGGGTAAGGGGATGTAGATCACGTGAATGAAAAGTCTTGATTCGCTTGACGCTGCTG | 8.93
18 | TAAAGGGAAGACGGTTGTGCTAGTTCCGGGTATTAAGTCTTGATTCGCTTGACGCTGCTG | 11.3
19 | CGGAAGTGTCGTAAACGTCGGATATCCGGTTCTTATGTCTTGATTCGCTTGACGCTGCTG | 12.4
20 | GGAAAAAGGCCCAGGGTAACACCGGAAGTTGGCTTAGTCTTGATTCGCTTGACGCTGCTG | 11
21 | CAGCATACGACTTCTTCCCTGAAGCAATTGATAACCGTCTTGATTCGCTTGACGCTGCTG | 8.81

Row | Sequence | binding signal (log fluorescence intensity)
22 | CACAATTTTTACAGTAATGTAGCACGCGTAACACCTGTCTTGATTCGCTTGACGCTGCTG | 8.84
23 | TCCGGCTACCATCTCCACCCACTTCAGGCCTTGTAGGTCTTGATTCGCTTGACGCTGCTG | 8.8
24 | CTGGGACTTGACCCAACCCTGCCACGTGGGTCGTTTGTCTTGATTCGCTTGACGCTGCTG | 8.96
25 | CGGAAGTGTCGTAAACGTCGGATTTCCGGTTCTTCTGTCTTGATTCGCTTGACGCTGCTG | 12.4
26 | GCTGCTGTGGTGCATACCCCACCGGATGTGACCCCGGTCTTGATTCGCTTGACGCTGCTG | 10.4
27 | TAAAGGGAAGACGGTTGTGGTAGTTCCGGGTGTTAAGTCTTGATTCGCTTGACGCTGCTG | 11.3
28 | CAGCATAGGACTTCTTCCCTGAAGCAATTAATAACCGTCTTGATTCGCTTGACGCTGCTG | 8.85
29 | TCCGGCTACCAGCTCCACCAACTTCAGGCCTTGTAGGTCTTGATTCGCTTGACGCTGCTG | 8.78
30 | CACAAGTTTTACAGTAATGTAGCACGCGTAACTCCTGTCTTGATTCGCTTGACGCTGCTG | 8.84
31 | GTGTATAGGAGCCCATCCAACACACGTGTTAAAATGGTCTTGATTCGCTTGACGCTGCTG | 8.92
32 | GGAAAAAGGCCCAGGGTAACAGCGGAAGTGGGCTTAGTCTTGATTCGCTTGACGCTGCTG | 10
33 | TCCGGCTACCAGCTCGACCCACTTCAGGCCTTGTAGGTCTTGATTCGCTTGACGCTGCTG | 8.79
34 | GCTGCCGCGGTGCATACCCCACCGGATGTGACCCCGGTCTTGATTCGCTTGACGCTGCTG | 10.5
35 | GATTAATTTCTGCCCTTATTCACACGTGCCATAACAGTCTTGATTCGCTTGACGCTGCTG | 8.81
36 | TCCGGCTACCCGCTCCACCCACTTCAGGCCTTGTAGGTCTTGATTCGCTTGACGCTGCTG | 8.93
37 | TCCGGCTACCAGCTCCACCCACTTCAGGCTTTGTAGGTCTTGATTCGCTTGACGCTGCTG | 8.84
38 | CATAATTTTTACAGTAATGTAGCACGCGTAACTCCTGTCTTGATTCGCTTGACGCTGCTG | 8.87
39 | TCCGGCTACCAGCTCCACGCACTTCAGGCCTTGTAGGTCTTGATTCGCTTGACGCTGCTG | 8.85
40 | TGTCGGGTAAGTGAATGTAGATCACGTGAATGAAAAGTCTTGATTCGCTTGACGCTGCTG | 8.9
41 | GTGTATAGGATCCCATCCAACGCACGTGTTAAAATGGTCTTGATTCGCTTGACGCTGCTG | 8.84
42 | CGGAAGTGTCGTAAACGTCGGATAGCCGGTTCTTCTGTCTTGATTCGCTTGACGCTGCTG | 9.03

Row | Sequence | binding signal (log fluorescence intensity)
43 | GTGTATCGGATCCCATCCAACACACGTGTTAAAATGGTCTTGATTCGCTTGACGCTGCTG | 8.86
44 | TACAATTTTTACAGTAATGTAGCACGCGTAACTCCTGTCTTGATTCGCTTGACGCTGCTG | 8.77
45 | TAGCATAGGACTTCTTCCCTGAAGCAATTGATAACCGTCTTGATTCGCTTGACGCTGCTG | 8.82
46 | CACAATTTTTACAGTAATGTAGCAAGCGTAACTCCTGTCTTGATTCGCTTGACGCTGCTG | 8.94
47 | CGGAAGTGTCGTAATCGTCGGATATCCGGTTCTTCTGTCTTGATTCGCTTGACGCTGCTG | 12.5
48 | CACAATTTTTACAGTGATGTAGCACGCGTAACTCCTGTCTTGATTCGCTTGACGCTGCTG | 8.89
49 | TCCGGCTACCAGCTCCACCCATTTCAGGCCTTGTAGGTCTTGATTCGCTTGACGCTGCTG | 8.94
50 | CTGGGACTTGTCCCAACTCTGCCACGTGGGTCGTTTGTCTTGATTCGCTTGACGCTGCTG | 8.97
51 | TACTGACTTATATATGCGAATGCACATGAATAGACTGTCTTGATTCGCTTGACGCTGCTG | 8.86
52 | GGAAAAACGCCCAGGGTAACACCGGAAGTGGGCTTAGTCTTGATTCGCTTGACGCTGCTG | 11.1
53 | CTGTGACTTGACCCAACTCTGCCACGTGGGTCGTTTGTCTTGATTCGCTTGACGCTGCTG | 9.01
54 | TCCGGCTACCAGCGCCACCCACTTCAGGCCTTGTAGGTCTTGATTCGCTTGACGCTGCTG | 8.91
55 | CAGCATAGGACTTCTCCCCTGAAGCAATTGATAACCGTCTTGATTCGCTTGACGCTGCTG | 8.91
56 | GCTGTTGCGGTGCATACCCCACCGGATGTGACCCCGGTCTTGATTCGCTTGACGCTGCTG | 10.4
57 | GATTAATTTCTGCCCTTAATCGCACGTGCCATAACAGTCTTGATTCGCTTGACGCTGCTG | 8.9
58 | GTGTATAGGATCCCATCCAACACACGTGTTAAAATAGTCTTGATTCGCTTGACGCTGCTG | 8.82
59 | TCCGGATACCAGCTCCACCCACTTCAGGCCTTGTAGGTCTTGATTCGCTTGACGCTGCTG | 9.07
60 | TGTCTGGTAAGGGAATGTAGATCACGTGAATGAAAAGTCTTGATTCGCTTGACGCTGCTG | 8.91
61 | GATTAATTTCTGCCCTTATACGCACGTGCCATAACAGTCTTGATTCGCTTGACGCTGCTG | 8.8
62 | TACTGACTTGTATATGCGAATGCACATGAATAGACCGTCTTGATTCGCTTGACGCTGCTG | 8.73
63 | TCCGGCTACCAGTTCCACCCACTTCAGGCCTTGTAGGTCTTGATTCGCTTGACGCTGCTG | 9.18

Row | Sequence | binding signal (log fluorescence intensity)
64 | CGGAAGTGTCGTAAACGGCGGATATCCGGTTCTTCTGTCTTGATTCGCTTGACGCTGCTG | 12.6
65 | TCCGGCTACCAGCTCCACCCACTTCGGGCCTTGTAGGTCTTGATTCGCTTGACGCTGCTG | 8.92
66 | CTGGGACTTGACCCAACTCTGCCACGCGGGTCGTTTGTCTTGATTCGCTTGACGCTGCTG | 8.85
67 | CAGCATAGTACTTCTTCCCTGAAGCAATTGATAACCGTCTTGATTCGCTTGACGCTGCTG | 8.98
68 | CAGCATAGGCCTTCTTCCCTGAAGCAATTGATAACCGTCTTGATTCGCTTGACGCTGCTG | 8.86
69 | GATTAATTTCTGCCCTTATTCGGACGTGCCATAACAGTCTTGATTCGCTTGACGCTGCTG | 9.13
70 | GGAAAAAGACCCAGGGTAACACCGGAAGTGGGCTTAGTCTTGATTCGCTTGACGCTGCTG | 11
71 | TCCGGCTACCAGCTCCACCCACTTCACGCCTTGTAGGTCTTGATTCGCTTGACGCTGCTG | 8.85
72 | CACAATTTTTACAGTAATGTAGCACGCCTAACTCCTGTCTTGATTCGCTTGACGCTGCTG | 8.87
73 | CGCAATTTTTACAGTAATGTAGCACGCGTAACTCCTGTCTTGATTCGCTTGACGCTGCTG | 8.83
74 | TGTCGGGTAAGGGAATGTAGATCACGTGAATAAAAAGTCTTGATTCGCTTGACGCTGCTG | 8.89
75 | GGAAAAAGGCCCAGGGTAACACCAGAAGTGGGCTTAGTCTTGATTCGCTTGACGCTGCTG | 8.76
76 | GTGTATAGGATCCCATCCAACACACGTGTTAAAAAGGTCTTGATTCGCTTGACGCTGCTG | 8.69
77 | CACAATTTTTACAGTAATGTAGCGCGCGTAACTCCTGTCTTGATTCGCTTGACGCTGCTG | 8.93
78 | GATTAATCTCTGCCCTTATTCGCACGTGCCATAACAGTCTTGATTCGCTTGACGCTGCTG | 8.77
79 | TAAAGGGAAGACGGTTGTGGTACTTCCGGGTATTAAGTCTTGATTCGCTTGACGCTGCTG | 12
80 | TCCGGCTACCAGCTCCACCCACTTCAGGCCTTGTATGTCTTGATTCGCTTGACGCTGCTG | 8.82
81 | CTGGTACTTGACCCAACTCTGCCACGTGGGTCGTTTGTCTTGATTCGCTTGACGCTGCTG | 8.96
